{"source": "the supplement of paper PMC8728848", "assay_in_all_cases": "glycan array binding signal (z-score within array); higher = stronger binding", "settings_in_all_cases": "glycan notation: IUPAC condensed, linker removed", "key": {"[1]": {"target": "Neu5Ac(a2-6)Gal(b1-4)GlcNAc(b1-2)Man(a1-3)[Neu5Ac(a2-3)Gal(b1-4)GlcNAc(b1-2)Man(a1-6)]Man(b1-4)GlcNAc(b1-4)GlcNAc", "in_short": "(§1)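 Columns mapping to the same glycan were averaged after glycan names were converted to IUPAC-condensed notation. The data come from 3228 arrays in the Consortium for Functional Glycomics database, limited to those with an available protein sequence. Binding is reported as a within-array Z-score averaged across arrays of one protein sequence and across linkers.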"}, "[2]": {"target": "Neu5Ac(a2-6)Gal(b1-4)GlcNAc(b1-2)Man(a1-3)[Neu5Ac(a2-6)Gal(b1-4)GlcNAc(b1-2)Man(a1-6)]Man(b1-4)GlcNAc(b1-4)GlcNAc", "in_short": "as §1"}, "[3]": {"target": "Neu5Ac(a2-6)Gal(b1-4)GlcNAc(b1-2)Man(a1-3)[Neu5Ac(a2-6)Gal(b1-4)GlcNAc(b1-2)Man(a1-6)]Man(b1-4)GlcNAc(b1-4)[Fuc(a1-6)]GlcNAc", "in_short": "as §1"}, "[4]": {"target": "Neu5Ac(a2-6)Gal(b1-4)GlcNAc(b1-2)Man(a1-6)Man(b1-4)GlcNAc(b1-4)GlcNAc", "in_short": "as §1"}, "[5]": {"target": "Neu5Ac(a2-6)Gal(b1-4)GlcNAc(b1-2)Man(a1-6)[Gal(b1-4)GlcNAc(b1-2)Man(a1-3)]Man(b1-4)GlcNAc(b1-4)GlcNAc", "in_short": "as §1"}, "[6]": {"target": "Neu5Ac(a2-6)Gal(b1-4)GlcNAc(b1-2)Man(a1-6)[GlcNAc(b1-2)Man(a1-3)]Man(b1-4)GlcNAc(b1-4)GlcNAc", "in_short": "as §1"}, "[7]": {"target": "Neu5Ac(a2-6)Gal(b1-4)GlcNAc(b1-2)Man(a1-6)[Man(a1-3)]Man(b1-4)GlcNAc(b1-4)GlcNAc", "in_short": "as §1"}, "[8]": {"target": "Neu5Ac(a2-6)Gal(b1-4)GlcNAc(b1-2)[Neu5Ac(a2-6)Gal(b1-4)GlcNAc(b1-4)]Man(a1-3)[GlcNAc(b1-4)][Neu5Ac(a2-6)Gal(b1-4)GlcNAc(b1-2)[Neu5Ac(a2-6)Gal(b1-4)GlcNAc(b1-6)]Man(a1-6)]Man(b1-4)GlcNAc(b1-4)GlcNAc", "in_short": "as §1"}, "[9]": {"target": "Neu5Ac(a2-6)Gal(b1-4)GlcNAc(b1-2)[Neu5Ac(a2-6)Gal(b1-4)GlcNAc(b1-4)]Man(a1-3)[GlcNAc(b1-4)][Neu5Ac(a2-6)Gal(b1-4)GlcNAc(b1-4)Man(a1-6)]Man(b1-4)GlcNAc(b1-4)GlcNAc", "in_short": "as §1"}, "[10]": {"target": "Neu5Ac(a2-6)Gal(b1-4)GlcNAc(b1-2)[Neu5Ac(a2-6)Gal(b1-4)GlcNAc(b1-6)]Man(a1-6)[Neu5Ac(a2-6)Gal(b1-4)GlcNAc(b1-2)Man(a1-3)][GlcNAc(b1-4)]Man(b1-4)GlcNAc(b1-4)GlcNAc", "in_short": "as §1"}, "[11]": {"target": "Neu5Ac(a2-6)Gal(b1-4)GlcNAc(b1-3)Gal(b1-3)GlcNAc", "in_short": "as §1"}, "[12]": {"target": "Neu5Ac(a2-6)Gal(b1-4)GlcNAc(b1-3)Gal(b1-4)GlcNAc", "in_short": "as §1"}, "[13]": {"target": "Neu5Ac(a2-6)Gal(b1-4)GlcNAc(b1-3)Gal(b1-4)GlcNAc(b1-2)Man(a1-3)[Neu5Ac(a2-6)Gal(b1-4)GlcNAc(b1-3)Gal(b1-4)GlcNAc(b1-2)Man(a1-6)]GalNAc", "in_short": "as §1"}, "[14]": {"target": "Neu5Ac(a2-6)Gal(b1-4)GlcNAc(b1-3)Gal(b1-4)GlcNAc(b1-3)Gal(b1-4)GlcNAc", "in_short": "as §1"}, "[15]": {"target": "Neu5Ac(a2-6)Gal(b1-4)GlcNAc(b1-3)Gal(b1-4)GlcNAc(b1-3)Gal(b1-4)GlcNAc(b1-2)Man(a1-3)[Neu5Ac(a2-6)Gal(b1-4)GlcNAc(b1-3)Gal(b1-4)GlcNAc(b1-3)Gal(b1-4)GlcNAc(b1-2)Man(a1-6)]GalNAc", "in_short": "as §1"}, "[16]": {"target": "Neu5Ac(a2-6)Gal(b1-4)GlcNAc(b1-3)Gal(b1-4)GlcNAc(b1-3)GalNAc", "in_short": "as §1"}, "[17]": {"target": "Neu5Ac(a2-6)Gal(b1-4)GlcNAc(b1-3)Gal(b1-4)GlcNAc(b1-3)[Neu5Ac(a2-6)Gal(b1-4)GlcNAc(b1-3)Gal(b1-4)GlcNAc(b1-6)]GalNAc", "in_short": "as §1"}, "[18]": {"target": "Neu5Ac(a2-6)Gal(b1-4)GlcNAc(b1-3)Gal(b1-4)GlcNAc(b1-6)[Gal(b1-3)]GalNAc", "in_short": "as §1"}, "[19]": {"target": "Neu5Ac(a2-6)Gal(b1-4)GlcNAc(b1-3)Gal(b1-4)[Fuc(a1-3)]GlcNAc(b1-3)Gal(b1-4)[Fuc(a1-3)]GlcNAc", "in_short": "as §1"}, "[20]": {"target": "Neu5Ac(a2-6)Gal(b1-4)GlcNAc(b1-3)GalNAc", "in_short": "as §1"}, "[21]": {"target": "Neu5Ac(a2-6)Gal(b1-4)GlcNAc(b1-3)[Neu5Ac(a2-6)Gal(b1-4)GlcNAc(b1-6)]GalNAc", "in_short": "as §1"}, "[22]": {"target": "Neu5Ac(a2-6)Gal(b1-4)GlcNAc(b1-6)GalNAc", "in_short": "as §1"}, "[23]": {"target": "Neu5Ac(a2-6)Gal(b1-4)GlcNAc(b1-6)[Gal(b1-3)GlcNAc(b1-3)]Gal(b1-4)Glc", "in_short": "as §1"}, "[24]": {"target": "Neu5Ac(a2-6)Gal(b1-4)GlcNAc(b1-6)[Gal(b1-3)]GalNAc", "in_short": "as §1"}, "[25]": {"target": "Neu5Ac(a2-6)Gal(b1-4)GlcNAc6S", "in_short": "as §1"}, "Neu5Ac(a2-6)GalNAc": {"target": "Neu5Ac(a2-6)GalNAc", "in_short": "as §1"}, "[26]": {"target": "Neu5Ac(a2-6)GalNAc(b1-4)GlcNAc", "in_short": "as §1"}, "[27]": {"target": "Neu5Ac(a2-6)GalNAc(b1-4)GlcNAc6S", "in_short": "as §1"}, "[28]": {"target": "Neu5Ac(a2-6)GlcNAc(b1-4)GlcNAc", "in_short": "as §1"}, "[29]": {"target": "Neu5Ac(a2-6)GlcNAc(b1-4)GlcNAc(b1-4)GlcNAc", "in_short": "as §1"}}, "note": "The other results are listed elsewhere or left out."}
{"binder": "Cohesin-hDC-ASGPR (Homo sapiens) (protein) LDDLDAVRIKVDTVNAKPGDTVRIPVRFSGIPSKGIANCDFVYSYDPNVLEIIEIEPGDIIVDPNPDKSFDTAVYPDRKIIVFLFAEDSGTGAYAITKDGVFATIVAKVKEGAPNGLSVIKFVEVGGFANNDLVEQKTQFFDGGANVGDTTEPATPTTPVTTPTTTDDLDAASQNSKFQRDLVTLRTDFSNFTSNTVAEIQALTSQGSSLEETIASLKAEVEGFKQERQAGVSELQEHTTQKAHLGHCPHCPSVCVPVHSEMLLRVQQLVQDLKKLTCQVATLNNNASTEGTCCPVNWVEHQDSCYWFSHSGMSWAEAEKYCQLKNAHLVVINSREEQNFVQKYLGSAYTWMGLSDPEGAWKWVDGTDYATGFQNWKPGQPDDWQGHGLGGGEDCAHFHPDGRWNDDVCQRPYHWVCEAGLGQTSQESHHHHHH", "values": [{"measurement": "glycan array binding signal (z-score)", "setting": "[1]", "value": -0.471}, {"measurement": "glycan array binding signal (z-score)", "setting": "[2]", "value": -0.469}, {"measurement": "glycan array binding signal (z-score)", "setting": "[3]", "value": -0.509}, {"measurement": "glycan array binding signal (z-score)", "setting": "[4]", "value": -0.524}, {"measurement": "glycan array binding signal (z-score)", "setting": "[5]", "value": -0.511}, {"measurement": "glycan array binding signal (z-score)", "setting": "[6]", "value": -0.387}, {"measurement": "glycan array binding signal (z-score)", "setting": "[7]", "value": -0.519}, {"measurement": "glycan array binding signal (z-score)", "setting": "[8]", "value": -0.485}, {"measurement": "glycan array binding signal (z-score)", "setting": "[9]", "value": -0.498}, {"measurement": "glycan array binding signal (z-score)", "setting": "[10]", "value": -0.505}, {"measurement": "glycan array binding signal (z-score)", "setting": "[11]", "value": -0.422}, {"measurement": "glycan array binding signal (z-score)", "setting": "[12]", "value": -0.5}, {"measurement": "glycan array binding signal (z-score)", "setting": "[13]", "value": 0.021}, {"measurement": "glycan array binding signal (z-score)", "setting": "[14]", "value": -0.502}, {"measurement": "glycan array binding signal (z-score)", "setting": "[15]", "value": 0.226}, {"measurement": "glycan array binding signal (z-score)", "setting": "[16]", "value": -0.493}, {"measurement": "glycan array binding signal (z-score)", "setting": "[17]", "value": -0.157}, {"measurement": "glycan array binding signal (z-score)", "setting": "[18]", "value": -0.49}, {"measurement": "glycan array binding signal (z-score)", "setting": "[19]", "value": -0.458}, {"measurement": "glycan array binding signal (z-score)", "setting": "[20]", "value": 1.91}, {"measurement": "glycan array binding signal (z-score)", "setting": "[21]", "value": -0.436}, {"measurement": "glycan array binding signal (z-score)", "setting": "[22]", "value": -0.461}, {"measurement": "glycan array binding signal (z-score)", "setting": "[23]", "value": -0.484}, {"measurement": "glycan array binding signal (z-score)", "setting": "[24]", "value": -0.393}, {"measurement": "glycan array binding signal (z-score)", "setting": "[25]", "value": -0.359}, {"measurement": "glycan array binding signal (z-score)", "setting": "Neu5Ac(a2-6)GalNAc", "value": 2.69}, {"measurement": "glycan array binding signal (z-score)", "setting": "[26]", "value": 2.6}, {"measurement": "glycan array binding signal (z-score)", "setting": "[27]", "value": 2.3}, {"measurement": "glycan array binding signal (z-score)", "setting": "[28]", "value": -0.492}, {"measurement": "glycan array binding signal (z-score)", "setting": "[29]", "value": -0.52}]}
